Over roughly 33,000 sequences, “E-score (-0.5 to 0.5)” has its median near -0.035; the highest 2% begin near 0.35. The list shows a part of the results.

Here are results for 86 sequences from the supplement of paper PMC3334620.

The assay has as its target T1, Pdr3 (UniProt P33200).
T1 sequence: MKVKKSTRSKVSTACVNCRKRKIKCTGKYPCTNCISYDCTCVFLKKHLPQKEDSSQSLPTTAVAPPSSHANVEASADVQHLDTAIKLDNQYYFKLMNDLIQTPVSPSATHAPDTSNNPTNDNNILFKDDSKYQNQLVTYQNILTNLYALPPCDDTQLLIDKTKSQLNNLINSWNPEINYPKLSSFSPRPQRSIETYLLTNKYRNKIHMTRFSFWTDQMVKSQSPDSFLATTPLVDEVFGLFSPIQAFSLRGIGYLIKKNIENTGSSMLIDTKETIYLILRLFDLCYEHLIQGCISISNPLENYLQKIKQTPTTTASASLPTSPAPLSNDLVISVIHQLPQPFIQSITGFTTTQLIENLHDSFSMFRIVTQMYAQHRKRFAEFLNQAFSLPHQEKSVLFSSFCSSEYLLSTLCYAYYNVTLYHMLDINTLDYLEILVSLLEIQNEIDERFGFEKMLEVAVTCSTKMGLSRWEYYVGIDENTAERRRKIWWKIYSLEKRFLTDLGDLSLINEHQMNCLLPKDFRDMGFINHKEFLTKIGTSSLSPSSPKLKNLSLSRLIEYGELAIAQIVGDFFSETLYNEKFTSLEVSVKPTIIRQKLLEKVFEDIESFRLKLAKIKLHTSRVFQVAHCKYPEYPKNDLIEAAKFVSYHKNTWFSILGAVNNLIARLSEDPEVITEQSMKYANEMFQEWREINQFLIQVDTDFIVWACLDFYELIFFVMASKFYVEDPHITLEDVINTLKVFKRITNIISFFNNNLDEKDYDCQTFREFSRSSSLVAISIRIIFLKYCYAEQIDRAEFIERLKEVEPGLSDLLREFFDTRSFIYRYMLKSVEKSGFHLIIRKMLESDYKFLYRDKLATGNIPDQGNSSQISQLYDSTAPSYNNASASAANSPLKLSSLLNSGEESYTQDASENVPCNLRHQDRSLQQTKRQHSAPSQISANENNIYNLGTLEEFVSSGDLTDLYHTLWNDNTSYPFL
As to the kind of experiment: PBM E-score (8-mer binding enrichment) (E-score (-0.5 to 0.5)); higher = stronger / more preferred TF binding; most listed sequences are background and not binding sites. The note with it: protein concentration: 200 nM; construct: GST-full length. The method, then:
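Universal 'all 10-mer' protein binding microarrays (Agilent AMADID 015681) probed with GST-tagged S. cerevisiae TFs (full-length or DBD) made by in vitro transcription/translation (PURExpress), about 100-200 nM. Bound TF was detected with fluorescent anti-GST. Each ungapped 8-mer (which stands for itself and its reverse complement) is scored by the PBM enrichment score (E-score), a modified Wilcoxon-Mann-Whitney statistic from -0.5 to +0.5, computed with the Universal PBM Analysis Suite. Scale: above 0.35 generally sequence-specific binding.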
On to CTCTAGTA, for which the “PBM E-score” value was found to be 0.0263. Regarding AATTCTTC, the “PBM E-score” value is -0.0848. For ACCACGAT the value was -0.029.

Turning to GCTCGTGA, the “PBM E-score” value is -0.0277. As for CCTCTTTC, the “PBM E-score” value was -0.00122. Take GTCCACCA: the “PBM E-score” value is -0.0733. On to CAGTTTGG, for which the “PBM E-score” value was -0.0379. With GCGTGAGC, the “PBM E-score” value was determined as 0.0731. In the case of CATTACAC, the “PBM E-score” value was -0.0676. For GGTTCTAA, the “PBM E-score” value is 0.0295. With CGATATGC, the “PBM E-score” value came out at 0.0817. For TGTTTTAA the value was -0.0228; for CGAATGGA, -0.0273. In the case of CATACACA, the “PBM E-score” value was -0.275. AATTAAAA: the “PBM E-score” value is -0.0728.

For ATTCCCGA, the “PBM E-score” value was 0.212. Turning to ACGTTTAC, the “PBM E-score” value was -0.169. On to CATCCGGA, for which the “PBM E-score” value was found to be 0.426.

Turning to ACCCACCA, the “PBM E-score” value is -0.0903. On to ATGTCGAA, for which the “PBM E-score” value was 0.0136. For GGGGCGGA the value was 0.359; for TACACTCA, -0.091. As for AATGAATG, the “PBM E-score” value worked out at 0.113. On to AGACTCAA, for which the “PBM E-score” value is -0.24. CTAAAACA: the “PBM E-score” value is -0.144. Turning to CCTCGGTC, the “PBM E-score” value was -0.0478. On to CATTAGAG, for which the “PBM E-score” value is -0.234. As to CTTAGAAC, the “PBM E-score” value was -0.119. AAATTATA: the “PBM E-score” value is 0.238. On to CATCTGGC, for which the “PBM E-score” value was -0.0257.

For the sequence CCGGAAGG, the “PBM E-score” value is 0.421. For AACTATGC, the “PBM E-score” value is 0.102.

Take CTTTAACC: the “PBM E-score” value was -0.0243. Take ACGTTGAG: the “PBM E-score” value was -0.175. For AAGCCAAA the value was -0.123; for CATAGCCC, -0.0942; for ATAAACTG, 0.0284. For the sequence TAGAATAA, the “PBM E-score” value is -0.0191.

As for CACAGGCC, the “PBM E-score” value was -0.073. As for GGGCACAC, the figure is -0.153; as for CATTTCGA, -0.00856. CTGGAATC: the “PBM E-score” value is 0.02. Take TCATTGAA: the “PBM E-score” value was -0.301.

Take GAGCGGGA: the “PBM E-score” value came out at 0.158. In the case of AGCGATGG, the “PBM E-score” value is 0.0716. For AAATGCTG, the “PBM E-score” value was -0.155. For the sequence CTTGGTGA, the “PBM E-score” value was -0.0771. For the sequence AATTAAGC, the “PBM E-score” value worked out at 0.106. In the case of CCTGAGTA, the “PBM E-score” value was -0.1. With CTGGCCGC, the “PBM E-score” value was determined as 0.019. CTCAGTAA: the “PBM E-score” value was -0.137. As to GAATAAGA, the “PBM E-score” value is 0.116.

On to CTCCGTGA, for which the “PBM E-score” value turned out to be 0.301. Consider ACCTACAG, for which the “PBM E-score” value was -0.0159. For the sequence GAGACTAC, the “PBM E-score” value is -0.0463. Regarding CCGAAAAC, the “PBM E-score” value was -0.00202. For the sequence AAGACTGA, the “PBM E-score” value was -0.282. Turning to CCAATTAC, the “PBM E-score” value was -0.099.

Consider AATGGTAG, for which the “PBM E-score” value is -0.0896.

As for GACCACAA, the “PBM E-score” value came to 0.0326. For GTCGCTGA, the “PBM E-score” value was -0.103. Consider CATCAAGG, for which the “PBM E-score” value was -0.27. As for GTACTAAC, the figure is 0.0645; as for ACATACAG, -0.134.

For the sequence ATTATAAG, the “PBM E-score” value is -0.0394.

With GCTTAGGA, the “PBM E-score” value is -0.264. With CCATTACA, the “PBM E-score” value was 0.102. Take CGGAGCCA: the “PBM E-score” value was found to be 0.331. For GAGGGCAC the value was -0.232; for ACCCTTTA, -0.0141; for ACGGCAAA, 0.121.

AGCCCCCC: the “PBM E-score” value was -0.244.

Turning to CAATATCG, the “PBM E-score” value stood at 0.126. For CGCAGAGC the value was 0.00344; for CTAACTGC, -0.181.

Take AACCCCCC: the “PBM E-score” value is -0.307. As to ATGCCCCC, the “PBM E-score” value was -0.135.

As for GCATCTTA, the “PBM E-score” value is -0.0006. CCTATGCG: the “PBM E-score” value is -0.0785.

Consider AACCGTCG, for which the “PBM E-score” value is 0.0101. For ATCCCGCA the value was 0.21; for CATCGTGC, -0.125; for AAAAGCGA, 0.106. Turning to GTCCTTGA, the “PBM E-score” value is -0.105.

In the case of CATGAAGA, the “PBM E-score” value is -0.116. As for AAGGGAGT, the figure is -0.269.
